Laboratory results: PubChem BioAssay AID485297 (National Center for Advancing Translational Sciences (NCATS), 2010)
Screen size: about 320,000 compounds; about 9,100 (2.8%) were called active. The shares of active, inactive and inconclusive entries below differ from those in the screen. Calls come from the whole dose curve; as a rule, active = well fitted activation curve with a large enough effect; inconclusive = small, poorly fitted or top-dose-only effect; inactive = no such curve, though single readings can be large or run the other way. No potency is given beside an inconclusive call; the fits are too rough.

Assay: qHTS Assay for Rab9 Promoter Activators; note: nearly all actives have a fitted effect of over 60% in size; for activation, negative = inhibition: % of control where 0% means no effect
Settings: Huh7 Rab9 promoter-luciferase reporter, luminescence, 24 h; series mostly up to 9.22 µM; activation, negative = inhibition: at the top concentration
Method in brief: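 Measured in stably transfected Huh7 cells bearing a Rab9 promoter–luciferase construct: 24 h compound treatment at 37 °C, followed by luminescence detection.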
Potency is the fitted concentration of half-maximal effect; tags give direction and shape of the fitted curve.

Compound | Potency | activation, negative = inhibition
Cc1c(C(=O)Nc2cccc([N+](=O)[O-])c2)csc1-c1ccccc1 | active: 1.26 µM | –
CN(C)S(=O)(=O)N1CCN(C(=O)N2CCOCC2)CC1 | – | inactive: -5.13%
S=C(c1ccccc1)N1CCSCC1 | – | inactive: -1.12%
O=C(Cc1ccccc1)Nc1ccc(C(=O)Nc2ccc(O)cc2)cc1 | – | inactive: 2.69%
CCOc1ccc(-c2c(C(=O)N/N=C/c3cccnc3)nnn2-c2nonc2N)cc1 | – | inactive: -2.68%
Cc1nn2c3c(cnc2c1-c1ccccc1)C(=O)CCC3 | inconclusive [activator, single point] | –
Cc1cc(C)nc(NC(=O)CSc2nc3ccccc3o2)n1 | inconclusive [activator, single point] | –
O=C(Nc1ccccc1)c1ccc(-c2ccc(F)cc2)s1 | inconclusive [activator, partial curve] | –
CCCC(=O)NNC(=O)c1c(O)c2ccccc2[nH]c1=O | inconclusive [activator, single point] | –
CCN(CC)c1nc2ccccc2n(Cc2cccc(OC)c2)c1=O | – | inactive: -1.38%
Nn1c(SCc2ccccc2)nnc1C1CCCCC1 | inconclusive [activator, partial curve] | –
c1ccc(CSCc2cn3ccccc3n2)cc1 | active: 1.12 µM | –
COc1cc(NC(=O)c2ccc3c(c2)OCCO3)ccc1NC(=O)c1cccs1 | – | inactive: 18.1%
CC1=C([N+](=O)[O-])C(c2ccccc2Cl)NC(=O)N1C (stereo not drawn) | – | inactive: 3.28%
COc1cc2c(cc1NC(=O)COC(=O)CNC(=O)c1ccccc1)oc1ccccc12 | inconclusive [activator, single point] | –
COc1cccc(C(=O)Nc2nnc(-c3cccs3)o2)c1 | inconclusive [activator, partial curve] | –
C/C(=N\Nc1ncc(Cl)cc1Cl)c1ccc2c(c1)OCO2 | inconclusive [activator, single point] | –
COc1ccc(N/C=C2/Sc3ccccc3NC2=O)cc1 | inconclusive [activator, single point] | –
Cc1cc(/C=N/Nc2ccc([N+](=O)[O-])cn2)c(C)n1-c1ccccc1 | active: 3.55 µM | –
Cn1cccc1/C=C1\SC(=Nc2cccc(O)c2)NC1=O | inconclusive [activator, single point] | –
COC(=O)c1ccccc1NC(=O)COc1ccc2c(c1)OCO2 | inconclusive [activator, single point] | –
CCOC(=O)CN(C(=O)CN1CCC(n2nnc3cc(C)ccc32)CC1)c1ccccc1 | – | inactive: -1.29%
CSc1cccc(NC(=O)/C=C/c2ccco2)c1 | inconclusive [activator, single point] | –
Cc1cc(NC(=O)CC2CCCC2)ccc1Br | inconclusive [activator, partial curve] | –
CCn1nnnc1SCC(=O)Nc1ccc2c(c1)OCCO2 | inconclusive [activator, partial curve] | –
CCOc1ccc(-c2nnc(NC3=NCCCCC3)o2)cc1 | active: 1.58 µM | –

Compound | Potency | activation, negative = inhibition
c1ccc2sc(NC3=NCN(CCN4CCOCC4)CN3)nc2c1 | inconclusive [activator, single point] | –
COc1cc(/C=N/NC(=O)c2cc(C3CC3)[nH]n2)cc(OC)c1OC | – | inactive: -4.73%
Cc1cccc(C(=O)Nc2ccc(N3CCN(S(C)(=O)=O)CC3)cc2)c1 | active: 3.98 µM | –
O=C(CCS(=O)(=O)c1cccs1)N1CCCC1 | inconclusive [activator, partial curve] | –
O=C(Nn1c(SCc2ccc([N+](=O)[O-])cc2)nc2ccccc2c1=O)c1ccc(F)cc1 | inconclusive [activator, partial curve] | –
CNC(=S)Nc1ccc(-c2nc3ccc(C)cc3s2)cc1 | active: 0.398 µM | –
COc1ccc2c(=O)cc(-c3ccccc3F)oc2c1 | inconclusive [activator, single point] | –
CC(C)NC(=O)CCc1nnc(Cc2cccc(C(F)(F)F)c2)o1 | inconclusive [activator, partial curve] | –
COc1cccc(C(=O)Nc2ccc(F)c(F)c2F)c1 | inconclusive [activator, partial curve] | –
Cc1ccccc1C(=O)Nc1ccc(Cl)cn1 | active: 3.55 µM | –
Cc1ccc(C(=O)COC(=O)c2cn3ccccc3n2)cc1 | inconclusive [activator, single point] | –
O=C(Nc1cccc(-c2cn3c(n2)SCC3)c1)c1ccc2c(c1)OCO2 | inconclusive [activator, single point] | –
COc1ccc(S(=O)(=O)N(C)C)cc1NC(=O)COC(=O)c1nc2nccc(C)n2n1 | – | inactive: -1.71%
O=C(NCc1n[nH]c(=O)c2ccccc12)C1CC(=O)N(c2ccccc2)C1 (stereo not drawn) | – | inactive: -2.83%
CCC(C)(C)NC(=O)C(c1ccc(F)cc1)N(Cc1cccs1)C(=O)c1cnccn1 (stereo not drawn) | – | inactive: -6.04%
CC(C)c1ccc(NC(=O)COc2ccccn2)cc1 | inconclusive [activator, single point] | –
COc1cc(C(=O)NCCC(=O)N2CCC3(CC2)NCCc2[nH]cnc23)cc(OC)c1OC | – | inactive: 6.31%
CCOc1cc(/C=C2\COc3ccccc3C2=O)ccc1OCC(=O)N(C)C | – | inactive: -6.85%
CCOc1ccc(C(=O)Nc2cc(C)ccn2)cc1 | active: 0.316 µM | –
O=C(/C=C/Nc1ccccc1C(F)(F)F)c1ccco1 | active: 0.708 µM | –
CCc1ccc(NC(=O)C2(C)Cc3ccccc3C(=O)O2)cc1 (stereo not drawn) | inconclusive [activator, single point] | –
Cc1ccc(NC(=O)C(=O)NN=C2CCCC2)cc1C | inconclusive [activator, single point] | –
CCNc1ccccc(C(=O)/C=C/c2ccc3c(c2)OCO3)c1=O | – | inactive: 1.06%
N#Cc1cccc(-c2nnc(SCc3ccccc3C#N)o2)c1 | inconclusive [activator, single point] | –
COc1cccc(CC(=O)Nc2ccc3c(c2)OC2(CCCC2)O3)c1 | – | inactive: 21.6%
Cn1nccc1C(=O)N(CCN1CCCCC1)CC1CCCN(C2CCCC2)C1 (stereo not drawn) | inconclusive [activator, single point] | –

Compound | Potency | activation, negative = inhibition
O=C(O)COc1cccc(/C=C2/SC(=S)N(Cc3ccccc3)C2=O)c1 | – | inactive: -1.34%
Cc1ccc(C(=O)Oc2oc(-c3ccco3)nc2C=Nc2ccc(Cl)cc2)cc1 | active: 3.16 µM | –
CC(Oc1ccc(Cl)cc1Cl)c1nc(-c2ccc(NC(=O)c3ccco3)cc2)no1 (stereo not drawn) | inconclusive [activator, partial curve] | –
Cc1ccc(C)c(Nc2cc(C)nc3ncnn23)c1 | active: 0.1 µM | –
O=C(N/C(=C\c1cccc([N+](=O)[O-])c1)C(=O)N1CCOCC1)c1ccc([N+](=O)[O-])cc1 | inconclusive [activator, single point] | –
O=C(Nc1cc(S(=O)(=O)N2CCOCC2)ccc1N1CCCC1)c1ccc2c(c1)S(=O)(=O)c1ccccc1C2=O | – | inactive: -3.67%
C=CCN(C(=O)Nc1ccc2oc(C)nc2c1)c1ccccc1 | inconclusive [activator, partial curve] | –
O=C(Nc1cccnc1)c1sc2cccc(F)c2c1Cl | inconclusive [activator, single point] | –
CC(=O)c1ccc(NC(=O)N2CCc3ccccc3C2)cc1 | inconclusive [activator, single point] | –
CSc1ncnc2c1cnn2-c1ccc(C)cc1C | inconclusive [activator, single point] | –
CCC(=O)Nc1nc(C)c(-c2csc(Nc3ccccn3)n2)s1 | inconclusive [activator, partial curve] | –
O=C(COc1ccccc1)Nc1c(Cl)ccc2nsnc12 | inconclusive [activator, single point] | –
COc1ccc2c(c1)S/C(=C\C(=O)c1ccncc1)N2C | inconclusive [activator, partial curve] | –
Cc1ccccc1S(=O)(=O)c1cc(C#N)c(=O)[nH]c1N | – | inactive: 6.49%
O=C(CSc1nnc(-c2ccccc2)o1)N1CCCCC1 | active: 2.51 µM | –
CC(Sc1nnc(-c2cccnc2)o1)C(=O)NC1CCCCC1 (stereo not drawn) | – | inactive: -0.304%
CCOC(=O)c1c(-c2ccc(-c3ccccc3)cc2)csc1NC(=O)CCC(=O)O | inconclusive [activator, single point] | –
Cc1ccsc1C(=O)NCCc1nnc2ccccn12 | active: 2.51 µM | –
N#CCSc1ncnc2ccccc12 | – | inactive: -12.3%
CCCCC(=O)N/N=C/c1ccc(N2CCOCC2)c([N+](=O)[O-])c1 | inconclusive [activator, single point] | –
COc1ccc(-c2csc(N3CCOCC3)n2)cc1OC | inconclusive [activator, partial curve] | –
Cc1cc(NC(=O)c2cc(C(C)C)on2)no1 | inconclusive [activator, single point] | –
O=C(Nc1ccc(F)cc1)N1CCc2ccccc2C1 | inconclusive [activator, single point] | –
CC(/C=N/NC(=O)c1cnccn1)=C\c1ccco1 | inconclusive [activator, partial curve] | –
N#Cc1ccsc1NC(=O)COC(=O)c1cc(Br)ccc1O | inconclusive [activator, single point] | –
Cc1[nH]n(-c2ccccc2)c(=O)c1N=Nc1ccc2c(c1)OCO2 | inconclusive [activator, single point] | –
